This note sets out measurements from the antibiotic and cytotoxicity screens of Wong et al. (2023).

This is one part of the list.

The experiment has as its system HSkMC (human skeletal muscle cells). The experiment is described as follows: cytotoxicity call (relative viability < 0.9). Particulars: 10 µM.
`O=C(O)CCC(=O)Nc1ccccn1`: the cytotoxicity call was “inactive”.

With `C[C@H](CO)N1C[C@H](C)[C@H](CN(C)C(=O)NC2CCCCC2)OCCCC[C@H](C)Oc2ccc(NC(=O)Nc3ccc(F)cc3)cc2C1=O`, the cytotoxicity call is “inactive”.

Regarding `CN(C)CC(=O)N1CC(=O)N2[C@H](CO)[C@H](c3ccc(C#Cc4cccnc4)cc3)[C@@H]2C1`, the cytotoxicity call is “inactive”.

For `CC(C)NC(=O)Nc1ccc2c(c1)C(=O)N([C@H](C)CO)C[C@@H](C)[C@H](CN(C)CC1CCCCC1)OCCCC[C@H](C)O2`, the cytotoxicity call is “inactive”.

Turning to `CC(C[N+](C)(C)C)OC(N)=O.[Cl-]` (stereo not drawn), the cytotoxicity call is “inactive”.

Regarding `C[C@@H]1CN([C@@H](C)CO)C(=O)c2cc(NC(=O)Nc3ccc(C(F)(F)F)cc3)ccc2O[C@@H](C)CCCCO[C@@H]1CN(C)Cc1ccc(C(F)(F)F)cc1`, the cytotoxicity call is “inactive”.

As for `C[C@@H]1CCCCO[C@@H](CN(C)S(=O)(=O)c2cccs2)[C@H](C)CN([C@@H](C)CO)C(=O)c2cc(NC(=O)c3ccccc3)ccc2O1`, the cytotoxicity call was “inactive”.

Take `C[C@@H]1CN([C@@H](C)CO)C(=O)Cc2cc(NS(=O)(=O)c3ccc(F)cc3)ccc2O[C@@H]1CN(C)Cc1ccncc1`: the cytotoxicity call was “inactive”.

On to `COc1ccc(NC(=O)N(C)C[C@H]2OCCCC[C@H](C)Oc3ccc(NS(=O)(=O)c4cccs4)cc3C(=O)N([C@H](C)CO)C[C@@H]2C)cc1`, for which the cytotoxicity call was “inactive”.

As to `C[C@H](CO)N1C[C@H](C)[C@@H](CN(C)C)Oc2ccc(NS(=O)(=O)c3ccc(Cl)cc3)cc2CC1=O`, the cytotoxicity call was “inactive”.

As for `O=C(C[C@@H]1C[C@H]2c3cc(NC(=O)Cc4ccncc4)ccc3O[C@H]2[C@H](CO)O1)NCCN1CCCCC1`, the cytotoxicity call is “inactive”.

For the compound `COc1ccc(NC(=O)Nc2ccc3c(c2)C(=O)N([C@@H](C)CO)C[C@H](C)[C@H](CN(C)Cc2ccccc2)OCCCC[C@H](C)O3)cc1`, the cytotoxicity call is “inactive”.

With `C[C@@H]1CN([C@@H](C)CO)C(=O)c2cccc(NC(=O)c3ccc(-c4nccs4)cc3)c2O[C@H]1CN(C)C(=O)Nc1ccc2c(c1)OCO2`, the cytotoxicity call is “inactive”.

Take `O=C1O[C@@H](c2ccccc2)[C@@H](c2ccccc2)N2[C@@H](c3ccccc3OCCO)[C@]3(C(=O)Nc4ccc(C#CC5=CCCCC5)cc43)[C@@H](C(=O)O)[C@H]12`: the cytotoxicity call was “inactive”.

`C[C@H](CO)N1C[C@H](C)[C@@H](CN(C)C(=O)NC2CCCCC2)OCCCC[C@H](C)Oc2ccc(NC(=O)CCC(F)(F)F)cc2C1=O`: the cytotoxicity call is “inactive”.

`CC(=O)NCCCC[C@@H]1NC(=O)[C@@H]2C[C@H](C(=O)NCCCCN(C)C)[C@H](c3cccc(OCCO)c3)N2C1=O`: the cytotoxicity call was “inactive”.

For the compound `C[C@@H]1CN([C@@H](C)CO)C(=O)CCCn2cc(nn2)CO[C@@H]1CN(C)C(=O)Nc1cccc2ccccc12`, the cytotoxicity call is “inactive”.

As to `C[N+](C)(C)CCCC[C@@H]1NC(=O)[C@H]2C[C@@H](C(=O)NCCCCCCN)[C@@H](c3ccc(O)cc3)N2C1=O`, the cytotoxicity call is “inactive”.

On to `COc1cccc(S(=O)(=O)Nc2ccc3c(c2)[C@H]2C[C@H](CC(=O)N4CCCCC4)O[C@H](CO)[C@H]2O3)c1`, for which the cytotoxicity call is “inactive”.

Turning to `Cc1noc(C)c1NC(=O)Nc1cccc2c1O[C@@H](CN(C)Cc1ccc(Cl)c(Cl)c1)[C@@H](C)CN([C@H](C)CO)C2=O`, the cytotoxicity call is “inactive”.

As to `CO[C@@H](CN(C)S(=O)(=O)c1cccc(Cl)c1)[C@H](C)CN([C@@H](C)CO)S(=O)(=O)c1ccc(Cl)cc1`, the cytotoxicity call was “inactive”.

`Fc1cccc(-c2csc(COc3ccccc3Cl)n2)c1`: the cytotoxicity call is “inactive”.

For `C[C@@H]1CCCCO[C@@H](CN(C)S(=O)(=O)c2ccc(Cl)cc2)[C@@H](C)CN([C@H](C)CO)C(=O)c2cc(NS(=O)(=O)c3ccc(Cl)cc3)ccc2O1`, the cytotoxicity call was “inactive”.

Regarding `Cc1ccc(S(=O)(=O)N(C)C[C@H]2Oc3ccc(NC(=O)Nc4cccc5ccccc45)cc3CC(=O)N([C@H](C)CO)C[C@H]2C)cc1`, the cytotoxicity call is “inactive”.

Consider `CC1OC(OC2C(Oc3cc(O)c4c(=O)cc(-c5ccc(O)cc5)oc4c3)OC(CO)C(O)C2O)C(O)C(O)C1O` (stereo not drawn), for which the cytotoxicity call is “inactive”.

Take `C[C@@H]1CN([C@H](C)CO)C(=O)c2cccc(NC(=O)c3nc4ccccc4s3)c2O[C@@H]1CN(C)S(=O)(=O)c1cn(C)cn1`: the cytotoxicity call is “inactive”.

As to `C[C@@H]1CCCCO[C@H](CN(C)S(=O)(=O)c2ccccc2)[C@@H](C)CN([C@H](C)CO)C(=O)c2cc(NC(=O)Nc3ccccc3)ccc2O1`, the cytotoxicity call is “inactive”.

Regarding `C[C@@H]1CN([C@H](C)CO)C(=O)c2cccc(NC(=O)C3CCCCC3)c2O[C@H]1CN(C)C(=O)Nc1ccc(C(F)(F)F)cc1`, the cytotoxicity call is “inactive”.
